# Results reported in PubChem BioAssay AID463173 (ICCB-Longwood Screening Facility, Harvard Medical School, 2010).
# Hit rate of the full screen: of about 52,000 compounds, about 1,700 (3.3%) were called active. Rule as the data show it: active = survival mostly below about 52% (no sharp cut-off); inactive = mostly above about 56%. The list shows a part of the results.
# Tested on: Wild type
# Assay: growth inhibition of S. aureus wild type versus tarO mutant, primary screen, teichoic acid synthesis inhibitors, RN4220, OD600 (AID 463173)
# Details: S. aureus RN4220 wild type/DeltatarO growth, OD600, 18 h, stronger effect = lower value, screened at 18.75 µg/mL (by protocol)
row,SMILES,survival
1,COc1ccc(CNC(=O)c2c(O)nc3c(C)cccn3c2=O)cc1,inactive: 76%
2,CC(C)Cn1cc(NC(=O)N2CCN(c3cccc(C(F)(F)F)c3)CC2)c2ccccc2c1=O,inactive: 68%
3,Cc1cccc2nc(-c3ccccn3)c(Nc3ccccc3)n12,active: 21%
4,COc1cc2nc(Nc3cccc(F)c3)nc(N)c2cc1OC,inactive: 89%
5,CCOc1ccc(-c2nc(-c3ccccc3)c(-c3ccccc3)[nH]2)cc1OCC,inactive: 163%
6,O=S(=O)(NCCc1nnc2ccc(SCc3ccccc3Cl)nn12)c1ccccc1,inactive: 76%
7,Cc1cc(N2CCC(C)CC2)nc2ccc(NC(=O)Cc3ccccc3Br)cc12,inactive: 64%
8,Cc1ccc2c(CC(=O)N(Cc3ccc(N(C)C)cc3)Cc3ccco3)coc2c1C,inactive: 70%
9,Cc1ccc2oc(-c3ccc(C)c(NC(=O)/C=C/c4ccco4)c3)nc2c1,inactive: 80%
10,O=C(NCc1ccccc1Cl)c1nnc(Cc2cccc(F)c2)o1,inactive: 87%
11,COc1cc2c(cc1N)CCCC2,inactive: 110%
12,O=C1CSC2(C(=O)N(Cc3cccc(C(F)(F)F)c3)c3ccccc32)N1c1ccc(F)c(F)c1 (centres undefined),inactive: 68%
13,Cc1ccc(CNC(=O)Cn2ccn(-c3cccc(Cl)c3)c(=O)c2=O)cc1,inactive: 85%
14,N#Cc1ccccc1CSc1nnc(-c2ccc(Br)cc2)o1,inactive: 73%
15,COc1cccc(-c2cc(C(F)(F)F)n3ncc(C(=O)OC(C)C)c3n2)c1,inactive: 78%
16,CCc1ccc(OCC(=O)N(Cc2ccc(C(C)C)cc2)C2CCS(=O)(=O)C2)cc1 (centres undefined),inactive: 54%
17,CCCOc1ccc(C2C(=O)N(C3CCC(C)CC3)CC(=O)N2CCc2ccccc2)cc1OC (centres undefined),inactive: 129%
18,Cc1ccc(-c2noc(CNC(=O)c3ccc(C)c(Cl)c3)n2)cc1,inactive: 91%
19,O=C(Nc1ccccc1C(F)(F)F)c1ccc(F)c(S(=O)(=O)N2CCc3ccccc3C2)c1,inactive: 83%
20,Cc1ccc(-n2c(C)cc(/C=C(\C#N)C(=O)Nc3ccc(C)c(C)c3)c2C)cc1,inactive: 67%
21,CCN(CC)C(=O)C1=C(C)Nc2nc3ccccc3n2C1c1cccc(OC)c1 (centres undefined),inactive: 86%
22,COc1ccc(NC(=O)[C@H](Cc2ccccc2)N2Cc3ccccc3C2=O)cc1OC,inactive: 94%
23,Cc1ccc(-n2ncc(C(=O)NCCN3CCN(C)CC3)c2C2CCN(C(=O)OC(C)(C)C)CC2)cc1C,inactive: 84%

row,SMILES,survival
1,COc1cccc(NC(=O)Cn2c(=O)n(Cc3ccc4c(c3)OCO4)c(=O)c3oc4ccccc4c32)c1,inactive: 80%
2,CC(=O)c1cccc(NS(=O)(=O)c2c(C(=O)N3CCCCCC3)c(C)n(C)c2C)c1,inactive: 81%
3,CCOc1ccc(CNC(=O)Cn2c(=O)c3cccn3c3cccnc32)cc1,inactive: 89%
4,COc1ccc2c(c1)c(N1CCCC1=O)c(C(=O)Nc1ccc(OC)c(Cl)c1)n2C,inactive: 68%
5,Cc1nn(-c2ccccc2)c2c1N(CCCC(=O)NC(C)c1ccccc1)C(=O)CS2 (centres undefined),inactive: 72%
6,Cc1nn(-c2ccccc2)c2c1N(CC(=O)N1CCN(c3ccc(Cl)cc3)CC1)C(=O)CS2,inactive: 72%
7,CCc1ccc(NC(=O)c2cc(S(=O)(=O)NC3CCCCCC3)ccc2F)cc1,inactive: 99%
8,COc1cc(NC(=O)c2noc3c2CC(C)CC3)c(OC)cc1Cl (centres undefined),inactive: 69%
9,CCOC(=O)c1c(C)nc2c(c1C)c(=O)oc1ccccc12,inactive: 102%
10,O=C(NCCNC1CCCC1)c1ccco1,inactive: 92%
11,CCc1ccc(CNC(=O)CCn2nc(C)c3c(C)n(-c4ccccc4)nc3c2=O)cc1,inactive: 65%
12,Cc1ccc(S(=O)(=O)c2cn(Cc3ccccc3)c3cc(N4CCOCC4)c(F)cc3c2=O)cc1,inactive: 68%
13,Cc1nn(CCCC(=O)Nc2ccccc2C(F)(F)F)c(=O)c2nn(-c3ccccc3)c(C)c12,inactive: 91%
14,CC1CCC(NC(=O)c2ccc(CSc3nc4ccncc4n3Cc3ccc(F)cc3)cc2)CC1 (centres undefined),inactive: 81%
15,COc1ccc(-n2c(SCCC(C)C)nc3sc4c(c3c2=O)CC(C(C)C)OC4)cc1 (centres undefined),inactive: 42%
16,O=C(Nc1ccccc1)c1cccc(N2CCCS2(=O)=O)c1,inactive: 126%
17,Cc1cc(C)n2nc(CNC(=O)c3ccc(Cl)cc3)nc2n1,inactive: 126%
18,COc1ccc(C(CC(=O)Nc2ncccc2C)N2Cc3ccccc3C2=O)cc1OC (centres undefined),inactive: 88%
19,Cc1nn2c(-c3ccccc3)cc(-c3ccccc3)nc2c1-c1ccc(Cl)cc1,inactive: 86%
20,CC(=O)Nc1ccc2nc(NC(=O)c3cc4ccccc4o3)sc2c1,inactive: 112%
21,COc1cccc(-c2nc(CS(=O)(=O)CC(=O)N3CCN(c4ccccc4)CC3)c(C)o2)c1,inactive: 94%
22,O=C(Cn1c(=O)ccc2cc(S(=O)(=O)N3CCCC3)ccc21)Nc1ccccc1,inactive: 65%
23,Cc1ccc(Cl)cc1N1CCN(C(=O)c2ccc3c(Cl)c4c(nc3c2)CCCC4)CC1,inactive: 29%

row,SMILES,survival
1,COc1ccccc1CNC(=O)CCc1c(C)c2cc3c(C)coc3cc2oc1=O,inactive: 72%
2,CCn1ccc2c(OCC(=O)Nc3ccc(OC)cc3OC)cccc2c1=O,active: -3%
3,O=c1ccc(-c2ccccc2)nn1Cc1c(F)cccc1Cl,inactive: 84%
4,CCN1CCN(CCCNC(=O)Cn2c(-c3cccs3)cc3cc(Cl)ccc32)CC1,inactive: 69%
5,COc1ccc(-c2nc(CNC(=O)Nc3ccccc3)c(C)o2)c(OC)c1,inactive: 72%
6,CC1CCCCN1c1cc2c(cc1F)c(=O)c(S(=O)(=O)c1ccccc1)cn2Cc1ccccc1 (centres undefined),inactive: 136%
7,O=C(Cn1c(-c2cccs2)cc2cc(F)ccc21)NCCc1ccc(Cl)cc1,inactive: 109%
8,O=S(=O)(Nc1ccc(O)c(Sc2nc3ccccc3s2)c1)c1cc(Cl)ccc1Cl,active: 0%
9,CCCCOc1ccc(CNC(=O)c2cnc3sc(N4CCCC4)nn3c2=O)cc1,inactive: 126%
10,Cc1c(Cl)cccc1NC(=O)C(=O)NCCc1csc2nc(-c3ccccc3F)nn12,active: 1%
11,CCn1cc(C(=O)NCCC(C)C)c(=O)c2cc(S(=O)(=O)N(C)C3CCCCC3)ccc21,inactive: 82%
12,CCC(=O)N1c2ccccc2CC1C(=O)NCCCN1CCN(c2ccc(OC)cc2)CC1 (centres undefined),inactive: 88%
13,COc1ccccc1Nc1nc(C)nc(N)c1S(=O)(=O)c1ccccc1,inactive: 80%
14,Cc1nc2c3cccnc3nn2c(C)c1CCC(=O)NCc1ccccc1,inactive: 123%
15,CCN(CC)S(=O)(=O)c1ccc2c(c1)nc(CN(C)C(=O)Nc1ccc(C)c(Cl)c1)n2C,inactive: 117%
16,Cc1ccc(C)c(NC(=O)c2cc(S(=O)(=O)NCc3ccccc3)ccc2F)c1,inactive: 70%
17,Cc1ccc(OCC(=O)NCC2(N3CCN(C)CC3)CCCCC2)cc1,inactive: 96%
18,COc1ccc(Nc2ncc(C(=O)Nc3cccc(Cl)c3)c3ccccc23)cc1,inactive: 72%
19,CCc1ccc(NC(=O)C(=O)NCC(c2ccc3c(c2)OCO3)N2CCN(C)CC2)cc1 (centres undefined),inactive: 110%
20,COc1ccc(CNC(=O)c2ccc(Cn3c(=O)c4cccn4c4cccnc43)cc2)c(OC)c1,inactive: 82%
21,Cc1ccc(O)c(NC(=O)c2cc(-c3ccc(F)cc3)no2)c1,inactive: 87%
22,COc1ccc(-n2nc3c(N4CCC(C(=O)N5CCC(C)CC5)CC4)nnc(C)c3c2C)cc1,inactive: 65%
23,Cc1oc(CC(C)C)c(CN2CCOCC2)c1C(=O)O,inactive: 106%

row,SMILES,survival
1,CC(C)CCNC(=O)c1cnc2sc(N3CCCCCC3)nn2c1=O,inactive: 80%
2,O=C(C1CCC1)N1CCCc2cc(S(=O)(=O)N3CCN(c4cccc(Cl)c4)CC3)ccc21,inactive: 80%
3,CCOc1ccc(-n2ccnc2SCC(=O)Nc2cc(C)ccc2C)cc1,inactive: 74%
4,CCOCc1cc(CN2CCN(c3cccc(C(F)(F)F)c3)CC2)c(O)c2ncccc12,inactive: 83%
5,COc1cccc(-n2c(SCc3cccc(C)c3)nc3c([nH]c4ccccc43)c2=O)c1,inactive: 78%
6,Cc1ccc(C)c(NC(=O)C(=O)NCCCN2CCOCC2)c1,inactive: 78%
7,CCOc1ccccc1NC(=O)COC(=O)CC(C)(C)CC1=NS(=O)(=O)c2ccccc2N1,inactive: 63%
8,Cc1onc(-c2ccccc2Cl)c1C(=O)Oc1ccc(Cl)cc1Cl,inactive: 82%
9,O=C(NCCCN1CCN(c2ccccc2)CC1)c1sc2ncccc2c1-n1cccc1,inactive: 81%
10,CCOc1ccc(CCNC(=O)c2cnc3c(-c4ccc(F)cc4)c(C)nn3c2C)cc1,inactive: 85%
11,Nc1ncc(S(=O)(=O)NCc2ccccc2)cn1,inactive: 81%
12,O=S(=O)(c1ccc2nsnc2c1)N1CCCCC1,inactive: 102%
13,COc1ccc(N(C(=O)c2ccccc2C)S(=O)(=O)c2ccc(Cl)cc2)cc1,inactive: 127%
14,CC1(C)CC(=O)C2=C(C1)OC(N)=C(C#N)C2c1cn(Cc2cccc(F)c2)c2ccccc12 (centres undefined),inactive: 112%
15,CC(C)(C)C(=O)CNS(=O)(=O)c1ccc(S(=O)(=O)NC2CCCCC2)cc1,inactive: 104%
16,O=C(NCCc1nc2ccccc2n1Cc1ccccc1F)c1ccc(F)cc1,inactive: 82%
17,COc1ccc(C(=O)c2cn(Cc3ccccc3)c3ccccc3c2=O)cc1OC,inactive: 92%
18,CN1C(C(=O)Nc2cccc(O)c2)=CC(c2cccs2)=NS1(=O)=O,inactive: 85%
19,O=C(Nc1cc(Cl)cc(Cl)c1)c1cc(S(=O)(=O)NC2CCCC2)ccc1F,inactive: 83%
20,COc1ccc(CN2C3CCCC2CC(NC(=O)NC2CCCCC2)C3)cc1 (centres undefined),inactive: 101%
